This passage reports cytotoxicity call results from the antibiotic and cytotoxicity screens of Wong et al. (2023).

The other results are listed elsewhere or left out.

This assay deals with HepG2. The assay can be described thus: cytotoxicity call (relative viability < 0.9). As to conditions: 10 µM.
Consider `CN1C[C@@H](O)COC[C@H]2O[C@@H](CC(=O)N3CCN(c4ccccc4)CC3)CC[C@@H]21`, for which the cytotoxicity call was “inactive”.
Turning to `CN1CCN(C(=O)C[C@H]2C[C@@H]3c4cc(NC(=O)c5ccc6c(c5)OCO6)ccc4O[C@@H]3[C@H](CO)O2)CC1`, the cytotoxicity call is “inactive”.
On to `CCCCCCOc1ccccc1C(N)=O`, for which the cytotoxicity call is “inactive”.
Regarding `C[C@@H]1CN([C@H](C)CO)S(=O)(=O)c2ccc(C3=CCCCC3)cc2O[C@@H]1CN(C)Cc1cncnc1`, the cytotoxicity call is “inactive”.
As for `COc1ccc(CN2C[C@@H](C)[C@@H](OC)CN(C)C(=O)c3ccc(NC(=O)c4nc5ccccc5s4)cc3OC[C@H]2C)cc1`, the entry is “inactive”.
Consider `C[C@@H]1CCCCO[C@@H](CN(C)C(=O)NC2CCCCC2)[C@@H](C)CN([C@@H](C)CO)C(=O)c2cc(NC(=O)Nc3ccccc3)ccc2O1`, for which the cytotoxicity call is “inactive”.
In the case of `C[C@@H]1CCCCO[C@@H](CN(C)C(=O)Nc2ccc(C(F)(F)F)cc2)[C@@H](C)CN([C@H](C)CO)C(=O)c2cc(NC(=O)Nc3ccc4c(c3)OCO4)ccc2O1`, the cytotoxicity call was “inactive”.
As to `Nc1nc2nc[nH]c2c(=S)[nH]1`, the cytotoxicity call was “inactive”.
As to `CC(C)NC(=O)N(C)C[C@H]1Oc2ccc(NC(=O)Cn3cnnn3)cc2C(=O)N([C@H](C)CO)C[C@@H]1C`, the cytotoxicity call was “inactive”.
Take `CN1C(=O)c2cc(NC(=O)c3ccc(F)c(F)c3)ccc2OC[C@@H]2O[C@@H](CC(=O)N3CCOCC3)CC[C@@H]21`: the cytotoxicity call was “inactive”.
Turning to `CCOC(=O)c1ccc(NC(=O)N[C@H]2O[C@@H](CO)[C@@H](O)[C@@H](O)[C@@H]2O)cc1`, the cytotoxicity call is “inactive”.
For `C[C@@H]1CN([C@@H](C)CO)C(=O)Cc2cc(NC(=O)CCN3CCOCC3)ccc2O[C@@H]1CN(C)Cc1ccc(C(=O)O)cc1`, the cytotoxicity call was “inactive”.
As to `O=S(=O)(Cc1ccccc1)Nc1ccc(-c2ccc3c(cnn3-c3ccc(F)cc3)c2)c(C(F)(F)F)c1`, the cytotoxicity call was “inactive”.
`C[C@@H]1CCCCO[C@H](CN(C)C(=O)Nc2ccccc2)[C@@H](C)CN([C@H](C)CO)C(=O)c2cc(NC(=O)c3ccncc3)ccc2O1`: the cytotoxicity call is “inactive”.
As to `C[C@@H]1CN([C@H](C)CO)C(=O)c2cc(NC(=O)Nc3ccc(C(F)(F)F)cc3)ccc2O[C@@H](C)CCCCO[C@H]1CN(C)Cc1ccc2c(c1)OCO2`, the cytotoxicity call is “active”.
As for `O=C(C[C@@H]1C=C[C@@H](NC(=O)CN2CCOCC2)[C@H](CO)O1)NC1CCCCC1`, the cytotoxicity call is “inactive”.
For the compound `Cc1noc(C)c1NC(=O)N(C)C[C@@H]1Oc2ccc(NC(=O)Cn3cnnn3)cc2C(=O)N([C@@H](C)CO)C[C@H]1C`, the cytotoxicity call is “inactive”.
Take `COCC#Cc1ccc2c(c1)O[C@@H](CN(C)Cc1ccccc1F)[C@@H](C)CN([C@@H](C)CO)S2(=O)=O`: the cytotoxicity call was “inactive”.
For `C[C@H](CO)N1C[C@H](C)[C@H](CN(C)C(=O)c2ccc3c(c2)OCO3)Oc2cc(-c3ccncc3)ccc2S1(=O)=O` the value was “inactive”.
As for `N#CC(c1ccccc1)(c1ccccc1)c1ccccc1Cl`, the cytotoxicity call was “inactive”.
Turning to `C[C@@H]1CN([C@@H](C)CO)C(=O)Cc2cc(NC(=O)CCCCCC(=O)Nc3ccccc3N)ccc2O[C@H]1CN(C)Cc1ccccc1`, the cytotoxicity call was “inactive”.
As for `CCCNC(=O)N1C[C@]2(CCN(CC2)C(=O)Cc2cccnc2)c2c([nH]c3cc(ccc23)OC)[C@@H]1CO`, the entry is “inactive”; as for `C[C@]1(C(=O)NCCN2CCOCC2)c2ccccc2C(=O)N(Cc2cc(C(F)(F)F)cc(C(F)(F)F)c2)[C@H]1c1ccc(CO)cc1`, “inactive”.
With `C[C@H](CO)N1C[C@H](C)[C@@H](CN(C)C(=O)Nc2ccc(-c3ccccc3)cc2)OCc2ccccc2-c2ccccc2C1=O`, the cytotoxicity call is “inactive”.
For `O=C(O[C@@H]1Cc2c(O)cc(O)cc2O[C@@H]1c1cc(O)c(O)c2c(=O)c(O)cc([C@H]3Oc4cc(O)cc(O)c4C[C@H]3O)c-2c1)c1cc(O)c(O)c(O)c1` the value was “active”; for `CC(C)NC(=O)Nc1ccc2c(c1)C(=O)N([C@@H](C)CO)C[C@H](C)[C@@H](CN(C)C(=O)C1CCCCC1)OCCCC[C@H](C)O2`, “inactive”; for `C[C@@H]1CN([C@@H](C)CO)C(=O)c2cccc(NC(=O)Nc3ccc(C(F)(F)F)cc3)c2O[C@@H]1CN(C)Cc1ccc2c(c1)OCO2`, “active”.
As for `C[C@H]1CN([C@@H](C)CO)C(=O)Cc2cc(NS(C)(=O)=O)ccc2O[C@H]1CN(C)Cc1ccc2c(c1)OCO2`, the entry is “inactive”; as for `C[C@@H]1CN([C@@H](C)CO)C(=O)Cc2cc(NC(=O)CCCCCC(=O)Nc3ccccc3N)ccc2O[C@@H]1CN(C)Cc1ccc(-c2ccccc2)cc1`, “active”.
With `O=C(NCCN1CCCC1)[C@H]1[C@H](CO)[C@H]2Cn3c(cccc3=O)[C@@H]1N2C(=O)c1ccccc1`, the cytotoxicity call is “inactive”.
